From paper PMC7819943, “Rice protein-binding microarrays: a tool to detect cis-acting elements near promoter regions in rice”
Some of the results follow.

What follows are sequences tested against T1, OsWOX13 (Oryza sativa, UniProt Q5QMM3 1-267) (assay: protein-binding microarray (RPBM); PBS, 2% BSA, 51.3 ng/ul salmon testes DNA, 50 uM zinc acetate, 200 nM TF, 25 C, 1 h; high values mean tight binding). Conditions: protein: recombinant; tags: N-terminal polyhistidine and DsRed monomer fusion (pET32a); label: CyDye5-dUTP incorporated in the synthesized complementary strand; 3' TTTTT single-stranded linker to array surface; dsDNA, one strand shown.
T1 sequence: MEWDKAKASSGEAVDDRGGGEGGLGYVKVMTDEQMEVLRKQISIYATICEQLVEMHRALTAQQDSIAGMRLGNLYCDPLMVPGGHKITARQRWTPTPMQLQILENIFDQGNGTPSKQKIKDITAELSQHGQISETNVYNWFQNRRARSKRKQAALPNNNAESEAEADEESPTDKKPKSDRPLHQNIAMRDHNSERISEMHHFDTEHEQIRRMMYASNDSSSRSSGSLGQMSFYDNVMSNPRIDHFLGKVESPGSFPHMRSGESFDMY
How it was run: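 Binding signal is reported as fluorescence intensity per feature (arbitrary units) from an Axon 4000B scanner. Incubation used 200 nM of each Ni–NTA-purified, N-terminally polyhistidine- and DsRed-fused transcription factor from E. coli BL21-CodonPlus on a double-stranded custom Agilent array for 1 h at 25 °C, with 50 µM zinc acetate in the buffer, followed by washing.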
“AACATCATTGCTAATTGGTAATATGACCATTCAAACTATTCGGAGTCACCTAGTGCAG” was tested, and the binding signal was 17100 fluorescence intensity (a.u.).
“AACTGATGGCCCTAGAGAAATCCAATCAGAACCACATAGCCGGAGTCACCTAGTGCAG” was tested, and the binding signal was 3230 fluorescence intensity (a.u.).
In the case of “TATTTAATACTCTAAATTAATGTCTAAATATAGGGACTAACGGAGTCACCTAGTGCAG”, the binding signal is reported as 3540 fluorescence intensity (a.u.).
For “GACAGCCAATTTAACTATTTAAGTTTAACTAGCTTGTACTCGGAGTCACCTAGTGCAG”, the binding signal was 5120 fluorescence intensity (a.u.).
With “GGTTAACTGAACTATATTTTCTTCGCAAAAGTAATAGAAACGGAGTCACCTAGTGCAG” the binding signal was 3330 fluorescence intensity (a.u.).
“CACAGGAGGTCTACTAATTGAACCGTGTATGATAATCGATCGGAGTCACCTAGTGCAG” was tested, and the binding signal was 3170 fluorescence intensity (a.u.).
For “TAACAAATTTATTCGTTTAGTGATGATGTTTGTTCTTTCTCGGAGTCACCTAGTGCAG”, the binding signal was 4840 fluorescence intensity (a.u.).
“CTTGTTTGATTTGACCCTATTATGTCATATAGTGTATATACGGAGTCACCTAGTGCAG” was tested, and the binding signal was 14300 fluorescence intensity (a.u.).
In the case of “AAGAATAATAATTATATGTAACATGAATAAGAATAGTGATCGGAGTCACCTAGTGCAG”, the binding signal is reported as 12200 fluorescence intensity (a.u.).
“GCTGAGCTGATTGCTTGATTCCTCGCTCGTTCAATCTACTCGGAGTCACCTAGTGCAG” was tested, and the binding signal was 20400 fluorescence intensity (a.u.).
In the case of “TAATGATTAAAGTATTTATGTTTGGGTCGTCAACCCCGCGCGGAGTCACCTAGTGCAG”, the binding signal is reported as 17000 fluorescence intensity (a.u.).
For “CGTATTAATCATTTAATCGTATGTCATAATTTCTGCAGAACGGAGTCACCTAGTGCAG”, the binding signal was 15800 fluorescence intensity (a.u.).
In the case of “ACTAGTTAATCACGATTGATGGAAGCGGTTGATTGAATGACGGAGTCACCTAGTGCAG”, the binding signal is reported as 51400 fluorescence intensity (a.u.).
For “GGTGATGGATCCCCACAGTGACAGCAGATCTAGTCGAGAGCGGAGTCACCTAGTGCAG”, the binding signal was 3230 fluorescence intensity (a.u.).
In the case of “TTAAGTCAATCATTAACAGTGCAACATGAATCTACATGATCGGAGTCACCTAGTGCAG”, the binding signal is reported as 22600 fluorescence intensity (a.u.).
In the case of “TATTAAATTGCATGTGTCGATTAGTTTAATCTAAACACTTCGGAGTCACCTAGTGCAG”, the binding signal is reported as 18100 fluorescence intensity (a.u.).
With “AAGATTAGACTAATTCAACTAATTCTTTTCATCGATTCGCCGGAGTCACCTAGTGCAG” the binding signal was 17000 fluorescence intensity (a.u.).
With “TCTCTCATCAATTTAATGGATATTATATTTTAATGCGTCCCGGAGTCACCTAGTGCAG” the binding signal was 11000 fluorescence intensity (a.u.).
“AATCCTAAATCAATCACCATAAGGTAAATTGACGTAGGAACGGAGTCACCTAGTGCAG” was tested, and the binding signal was 15700 fluorescence intensity (a.u.).
With “AAGACAATCTATGATTTAAGGTCTCCGCCTGGCTTTCCTTCGGAGTCACCTAGTGCAG” the binding signal was 8720 fluorescence intensity (a.u.).
For “GAGTAGGATGGGGTTTGATTTTGGGGTTCGTGGGGTCGAGCGGAGTCACCTAGTGCAG”, the binding signal was 4140 fluorescence intensity (a.u.).
For “TAGTCGTGTCAATTTGGAAAATTGGAAAGCCGTGGGGAGACGGAGTCACCTAGTGCAG”, the binding signal was 11400 fluorescence intensity (a.u.).
In the case of “GTTGACATAATTGATGGATTAGATACTAGAACTTTACAGTCGGAGTCACCTAGTGCAG”, the binding signal is reported as 46000 fluorescence intensity (a.u.).
“ATACTATCGTGTGATTTTGATAATTTAGTTTTATATAAGTCGGAGTCACCTAGTGCAG” was tested, and the binding signal was 3900 fluorescence intensity (a.u.).
In the case of “CTTGACGAAATTGAAGTACACTCCTTGTCGTTTATCGTGTCGGAGTCACCTAGTGCAG”, the binding signal is reported as 35700 fluorescence intensity (a.u.).
For “ATAAATTTATACAGCAATGCATGCATGTTTAACCAACACACGGAGTCACCTAGTGCAG”, the binding signal was 14500 fluorescence intensity (a.u.).
In the case of “CATATTGATGCTAATGAACCACATTCATATTGATGATATCCGGAGTCACCTAGTGCAG”, the binding signal is reported as 4090 fluorescence intensity (a.u.).
With “ATTATTAAATGAGATAAATCATCAAATGTATTGTTTAAATCGGAGTCACCTAGTGCAG” the binding signal was 3660 fluorescence intensity (a.u.).
In the case of “GAAAATCACTCTCATCATCAAATCAAGGGAACCGTATGAACGGAGTCACCTAGTGCAG”, the binding signal is reported as 10200 fluorescence intensity (a.u.).
For “GATGATTTGATCCAAGCTGAGATCGAGCTCTACCACCACTCGGAGTCACCTAGTGCAG”, the binding signal was 31500 fluorescence intensity (a.u.).
In the case of “CTTGAATAATTGAGTTTCACTTTGGAATGTATTTCCACCTCGGAGTCACCTAGTGCAG”, the binding signal is reported as 18300 fluorescence intensity (a.u.).
“CAAATGATGGAGGTTTCAAATTATACTGTACTTCAGCCATCGGAGTCACCTAGTGCAG” was tested, and the binding signal was 7400 fluorescence intensity (a.u.).
For “TATAAATTTAGACAGACAGATGAATTAACAAATCAATTTTCGGAGTCACCTAGTGCAG”, the binding signal was 26100 fluorescence intensity (a.u.).
With “GAGATTGAATGCTGATCCGATCACCAGGAACAAAGTTGATCGGAGTCACCTAGTGCAG” the binding signal was 22500 fluorescence intensity (a.u.).
“TTCTCATCACGTTTAATTATAGCATGATGGTTCATATTTCCGGAGTCACCTAGTGCAG” was tested, and the binding signal was 8970 fluorescence intensity (a.u.).
“GATGACGAATTTTAATTTTAAAGGAGTTGTCTGATCTATACGGAGTCACCTAGTGCAG” was tested, and the binding signal was 7180 fluorescence intensity (a.u.).
For “ATTTATTAATTAATAATTCCAGCTCCGGTTTCGTCTCTGCCGGAGTCACCTAGTGCAG”, the binding signal was 42400 fluorescence intensity (a.u.).
For “TGCAAATTTTGAATTTGCTGTTCATTGCGGTTAAGTAATTCGGAGTCACCTAGTGCAG”, the binding signal was 3450 fluorescence intensity (a.u.).
In the case of “TTGTAGCTGTCACACAAATTAGATAGCAAGGAAGCGCACACGGAGTCACCTAGTGCAG”, the binding signal is reported as 5120 fluorescence intensity (a.u.).
For “CGTTTATTAATTGTTATAACGAGTGTTTTATTCCAAGATTCGGAGTCACCTAGTGCAG”, the binding signal was 11700 fluorescence intensity (a.u.).
With “AAAATTGACGGTCGGATTTGGTACTTGAGGAACGTCAACACGGAGTCACCTAGTGCAG” the binding signal was 23000 fluorescence intensity (a.u.).
In the case of “TGATGACTTAACAGTTGATTCAGTCATAGCATTTGGACTTCGGAGTCACCTAGTGCAG”, the binding signal is reported as 3710 fluorescence intensity (a.u.).
“ATGCTAAACAAATGTGTTTTGATTTGGACTTGTGTAGTTGCGGAGTCACCTAGTGCAG” was tested, and the binding signal was 3660 fluorescence intensity (a.u.).
With “CCAATTTATATGAGATTGATATGGAAAACCGTAGAGTACGCGGAGTCACCTAGTGCAG” the binding signal was 22200 fluorescence intensity (a.u.).
For “CTGACAGGTCTGATATAGTAATAATGGCGTAGATGGATAACGGAGTCACCTAGTGCAG”, the binding signal was 7450 fluorescence intensity (a.u.).
“CTAGGATTAGTAACTGTATAGAACCACACCATCTGTCCAACGGAGTCACCTAGTGCAG” was tested, and the binding signal was 3420 fluorescence intensity (a.u.).
In the case of “TGTTCTCAATCAGTATTTGATCTTTGCGTTTAGTCGTCTCCGGAGTCACCTAGTGCAG”, the binding signal is reported as 14200 fluorescence intensity (a.u.).
“ATCTTCATTAATTAATTTATATAAATACCTACGTTAATGGCGGAGTCACCTAGTGCAG” was tested, and the binding signal was 28200 fluorescence intensity (a.u.).
With “AGTAGGAAACCAATCAGTCCCAGAAGAATTTTACACATTCCGGAGTCACCTAGTGCAG” the binding signal was 3230 fluorescence intensity (a.u.).
“CCCAGAAGTTAACATCAATTTATTCAGTCCTATGTTCTCGCGGAGTCACCTAGTGCAG” was tested, and the binding signal was 6860 fluorescence intensity (a.u.).
For “GATTGATTTAGTTTGGTGATGCTAATGTAATGTTAATGTTCGGAGTCACCTAGTGCAG”, the binding signal was 21400 fluorescence intensity (a.u.).
With “ACATATGTAATTTATAAACTTACAATATAAATACATGCTGCGGAGTCACCTAGTGCAG” the binding signal was 17000 fluorescence intensity (a.u.).
For “TAATATATCAAGCATAAATTTATGTTATCATTTTCTTTCGCGGAGTCACCTAGTGCAG”, the binding signal was 3920 fluorescence intensity (a.u.).
In the case of “CTAATTAATCTGTCATTAGCTTATGTGGGTTACTATAGTACGGAGTCACCTAGTGCAG”, the binding signal is reported as 15300 fluorescence intensity (a.u.).
